Results: patent US9695132B2, “Heteroaryl compounds and uses thereof” (Celgene CAR LLC, priority 2013, dated 2017)

target: FGFR4 (Homo sapiens (Human), UniProt P22455); test: Protein mass modification assay (MALDI, intact FGFR4); type: binding; details: method a: FGFR4 intact protein from SignalChem; 10-fold excess of compound, 60 min

Structure (SMILES) | MS FGFR4 (mass modification)
C=CC(=O)NC1CCCCC1Nc1ncc2c(n1)N(Cc1cccc(NC(=O)CC)c1)C(=O)N(c1c(Cl)c(OC)cc(OC)c1Cl)C2 (racemic) [Compound I-8] | F (mass modification of 31-69%)
C=CC(=O)NC1CCCCC1Nc1ncc2c(n1)N(C)C(=O)N(c1c(Cl)c(OC)cc(OC)c1Cl)C2 (racemic) [Compound I-19] | E (mass modification of ≧70%)
C=CC(=O)NC1CCCCC1Nc1ncc2c(n1)N(Cc1cccnc1)C(=O)N(c1c(Cl)c(OC)cc(OC)c1Cl)C2 (racemic) [Compound I-35] | E (mass modification of ≧70%)
C=CC(=O)NC1CCCCC1Nc1ncc2c(n1)N(C1CCCNC1)C(=O)N(c1cc(OC)cc(OC)c1)C2 (racemic) [Compound I-46] | G (mass modification ≦30%)
C=CC(=O)NC1CCCCC1Nc1ncc2c(n1)N(CC#N)C(=O)N(c1c(Cl)c(OC)cc(OC)c1Cl)C2 (racemic) [Compound I-47] | E (mass modification of ≧70%)
C=CC(=O)Nc1ccccc1Nc1ncc2c(n1)N(C)C(=O)N(c1c(Cl)c(OC)cc(OC)c1Cl)C2 [Compound I-2] | E (mass modification of ≧70%)
C=CC(=O)Nc1ccccc1Nc1ncc2c(n1)N(Cc1ccccc1)C(=O)N(c1c(Cl)c(OC)cc(OC)c1Cl)C2 [Compound I-3] | F (mass modification of 31-69%)
C=CC(=O)Nc1ccccc1Nc1ncc2c(n1)N(C)C(=O)N(c1cc(OC)cc(OC)c1)C2 [Compound I-5] | E (mass modification of ≧70%)
C=CC(=O)Nc1cc(N2CCN(CCOC)CC2)ccc1Nc1ncc2c(n1)N(Cc1cccc(NC(=O)CC)c1)C(=O)N(c1cc(OC)cc(OC)c1)C2 [Compound I-9] | F (mass modification of 31-69%)
C=CC(=O)Nc1cc(C(F)(F)F)ccc1Nc1ncc2c(n1)N(Cc1ccccc1)C(=O)N(c1c(Cl)c(OC)cc(OC)c1Cl)C2 [Compound I-10] | G (mass modification ≦30%)
C=CC(=O)Nc1cc(Cl)c(Cl)cc1Nc1ncc2c(n1)N(Cc1ccccc1)C(=O)N(c1c(Cl)c(OC)cc(OC)c1Cl)C2 [Compound I-11] | F (mass modification of 31-69%)
C=CC(=O)Nc1ccccc1Nc1ncc2c(n1)N(Cc1cccc(F)c1)C(=O)N(c1c(Cl)c(OC)cc(OC)c1Cl)C2 [Compound I-12] | E (mass modification of ≧70%)
C=CC(=O)Nc1cc(N(C)CCOC)ccc1Nc1ncc2c(n1)N(Cc1ccccc1)C(=O)N(c1cc(OC)cc(OC)c1)C2 [Compound I-13] | E (mass modification of ≧70%)
C=CC(=O)Nc1cc(OCCOC)ccc1Nc1ncc2c(n1)N(Cc1ccccc1)C(=O)N(c1cc(OC)cc(OC)c1)C2 [Compound I-14] | E (mass modification of ≧70%)
C=CC(=O)Nc1cc(N2CCN(CC)CC2)ccc1Nc1ncc2c(n1)N(C)C(=O)N(c1cc(OC)cc(OC)c1)C2 [Compound I-15] | E (mass modification of ≧70%)
C=CC(=O)Nc1cc(N2CCOCC2)ccc1Nc1ncc2c(n1)N(C)C(=O)N(c1cc(OC)cc(OC)c1)C2 [Compound I-17] | E (mass modification of ≧70%)
C=CC(=O)Nc1cc(N2CCN(CCOC)CC2)ccc1Nc1ncc2c(n1)N(C)C(=O)N(c1cc(OC)cc(OC)c1)C2 [Compound I-20] | F (mass modification of 31-69%)
C=CC(=O)Nc1cc(N(C)CCOC)ccc1Nc1ncc2c(n1)N(C)C(=O)N(c1cc(OC)cc(OC)c1)C2 [Compound I-21] | F (mass modification of 31-69%)
C=CC(=O)Nc1ccccc1Nc1ncc2c(n1)N(C1CC1)C(=O)N(c1c(Cl)c(OC)cc(OC)c1Cl)C2 [Compound I-23] | E (mass modification of ≧70%)
C=CC(=O)Nc1ccccc1Nc1ncc2c(n1)N(Cc1ccc(Cl)c(OC)c1)C(=O)N(c1c(Cl)c(OC)cc(OC)c1Cl)C2 [Compound I-24] | E (mass modification of ≧70%)
C=CC(=O)Nc1ccccc1Nc1ncc2c(n1)N(Cc1ccc(F)cc1)C(=O)N(c1c(Cl)c(OC)cc(OC)c1Cl)C2 [Compound I-25] | E (mass modification of ≧70%)
C=CC(=O)Nc1ccccc1Nc1ncc2c(n1)N(Cc1cccc(N)c1)C(=O)N(c1c(Cl)c(OC)cc(OC)c1Cl)C2 [Compound I-26] | E (mass modification of ≧70%)

Structure (SMILES) | MS FGFR4 (mass modification)
C=CC(=O)Nc1ccccc1Nc1ncc2c(n1)N(Cc1cccc(OC)c1)C(=O)N(c1c(Cl)c(OC)cc(OC)c1Cl)C2 [Compound I-28] | F (mass modification of 31-69%)
C=CC(=O)Nc1ccc(N2CCN(CC)CC2)cc1Nc1ncc2c(n1)N(C)C(=O)N(c1cc(OC)cc(OC)c1)C2 [Compound I-30] | F (mass modification of 31-69%)
C=CC(=O)Nc1cc(N2CCCCC2)ccc1Nc1ncc2c(n1)N(C)C(=O)N(c1cc(OC)cc(OC)c1)C2 [Compound I-31] | E (mass modification of ≧70%)
C=CCN1C(=O)N(c2cc(OC)cc(OC)c2)Cc2cnc(Nc3ccccc3NC(=O)C=C)nc21 [Compound I-32] | F (mass modification of 31-69%)
C=CC(=O)Nc1ccccc1Nc1ncc2c(n1)N(CC(O)CO)C(=O)N(c1cc(OC)cc(OC)c1)C2 (centres unmarked) [Compound I-33] | F (mass modification of 31-69%)
C=CC(=O)Nc1ccccc1Nc1ncc2c(n1)N(C1CC1)C(=O)N(c1cc(OC)cc(OC)c1)C2 [Compound I-34] | E (mass modification of ≧70%)
C=CC(=O)Nc1ccccc1Nc1ncc2c(n1)N(C1CCCN(C(=O)OC(C)(C)C)C1)C(=O)N(c1cc(OC)cc(OC)c1)C2 (centres unmarked) [Compound I-36] | F (mass modification of 31-69%)
C=CC(=O)Nc1ccccc1Nc1ncc2c(n1)N(C)C(=O)N(c1ccccc1)C2 [Compound I-38] | E (mass modification of ≧70%)
C=CC(=O)Nc1cc(C(F)(F)F)ccc1Nc1ncc2c(n1)N(C)C(=O)N(c1cc(OC)cc(OC)c1)C2 [Compound I-42] | F (mass modification of 31-69%)
C=CC(=O)Nc1ccccc1Nc1ncc2c(n1)N(CC#N)C(=O)N(c1cc(OC)cc(OC)c1)C2 [Compound I-48] | E (mass modification of ≧70%)
C=CC(=O)Nc1ccc(C)cc1Nc1ncc2c(n1)N(C)C(=O)N(c1cc(OC)cc(OC)c1)C2 [Compound I-49] | E (mass modification of ≧70%)
C=CC(=O)Nc1ccc(C(F)(F)F)cc1Nc1ncc2c(n1)N(C)C(=O)N(c1cc(OC)cc(OC)c1)C2 [Compound I-50] | E (mass modification of ≧70%)
C=CC(=O)Nc1ccccc1Nc1ncc2c(n1)N(C)C(=O)N(C1CCCCC1)C2 [Compound I-52] | F (mass modification of 31-69%)
C=CC(=O)Nc1cc(C2CCN(CC)CC2)ccc1Nc1ncc2c(n1)N(C)C(=O)N(c1cc(OC)cc(OC)c1)C2 [Compound I-54] | F (mass modification of 31-69%)
C=CCCN1C(=O)N(c2cc(OC)cc(OC)c2)Cc2cnc(Nc3ccccc3NC(=O)C=C)nc21 [Compound I-57] | F (mass modification of 31-69%)
C=CC(=O)Nc1ccccc1Nc1ncc2c(n1)N(CCC(O)CO)C(=O)N(c1cc(OC)cc(OC)c1)C2 (centres unmarked) [Compound I-58] | F (mass modification of 31-69%)
C=CC(=O)Nc1ccccc1Nc1ncc2cc(-c3cc(OC)cc(OC)c3)c(N)nc2n1 [Compound I-155] | E (mass modification of ≧70%)
C=CC(=O)NCc1ccccc1Nc1ncc2c(n1)N(Cc1cccc(NC(=O)CC)c1)C(=O)N(c1c(Cl)c(OC)cc(OC)c1Cl)C2 [Compound I-179] | E (mass modification of ≧70%)
C=CC(=O)Nc1ccccc1CNc1ncc2c(n1)N(Cc1cccc(NC(=O)CC)c1)C(=O)N(c1c(Cl)c(OC)cc(OC)c1Cl)C2 [Compound I-180] | F (mass modification of 31-69%)
C=CC(=O)NCc1ccccc1Nc1ncc2c(n1)N(C)C(=O)N(c1c(Cl)c(OC)cc(OC)c1Cl)C2 [Compound I-181] | E (mass modification of ≧70%)
C=CC(=O)Nc1ccc(Nc2ncc3c(n2)N(Cc2cccc(NC(=O)CC)c2)C(=O)N(c2c(Cl)c(OC)cc(OC)c2Cl)C3)cc1 [Compound I-233] | G (mass modification ≦30%)
CCC(=O)Nc1ccccc1Nc1ncc2c(n1)N(Cc1ccccc1)C(=O)N(c1c(Cl)c(OC)cc(OC)c1Cl)C2 [Compound I-236] | G (mass modification ≦30%)

same assay, conditions: method b: FGFR4 intact protein from Invitrogen; 10-fold excess of compound, 60 min

Structure (SMILES) | MS FGFR4 (mass modification)
C=CC(=O)NC1CCCCC1Nc1ncc2c(n1)N(C1CCCN(C(=O)OC(C)(C)C)C1)C(=O)N(c1cc(OC)cc(OC)c1)C2 (racemic) [Compound I-45] | F (mass modification of 31-69%)
C=CC(=O)NC1CCCCC1Nc1ncc2c(n1)N(Cc1cscn1)C(=O)N(c1c(Cl)c(OC)cc(OC)c1Cl)C2 (racemic) [Compound I-69] | E (mass modification of ≧70%)
C=CC(=O)Nc1ccccc1Nc1ncc2c(n1)N(C1CCCNC1)C(=O)N(c1cc(OC)cc(OC)c1)C2 (centres unmarked) [Compound I-43] | E (mass modification of ≧70%)
C=CC(=O)Nc1ccccc1Nc1ncc2c(n1)N(Cc1cccnc1)C(=O)N(c1cc(OC)cc(OC)c1)C2 [Compound I-44] | E (mass modification of ≧70%)
C=CC(=O)Nc1ccccc1Nc1ncc2c(n1)N(Cc1cscn1)C(=O)N(c1cc(OC)cc(OC)c1)C2 [Compound I-64] | E (mass modification of ≧70%)
C=CC(=O)N[C@@H]1CCCC[C@@H]1Nc1ncc2c(n1)N(Cc1ccccc1)C(=O)N(c1c(Cl)c(OC)cc(OC)c1Cl)C2 [Compound I-66] | G (mass modification ≦30%)
C=CC(=O)N[C@H]1CCCC[C@H]1Nc1ncc2c(n1)N(Cc1ccccc1)C(=O)N(c1c(Cl)c(OC)cc(OC)c1Cl)C2 [Compound I-82] | F (mass modification of 31-69%)
C=CC(=O)Nc1ccccc1Nc1ncc2c(n1)N(C)C(=O)N(c1c(Cl)cccc1Cl)C2 [Compound I-83] | E (mass modification of ≧70%)
C=CC(=O)Nc1nn(C)cc1Nc1ncc2c(n1)N(C)C(=O)N(c1c(Cl)c(OC)cc(OC)c1Cl)C2 [Compound I-117] | E (mass modification of ≧70%)
